Results: PubChem BioAssay AID1963969 (Molecular Pharmacology Branch, DTP, NCI, 2024)
Certain results were filed several times, with different values. Only these are listed. There may be further records. Results that share an entry are repeats in other runs, samples, wells, individuals or studies. Signs of the kind (2×) count equal records among those shown.

Test system: 817829-284-R-J1-PDC multi-cell spheroid viability
Test: Anticancer human tumor 817829-284-R-J1-PDC patient-derived colon adenocarcinoma cell line growth inhibition [PI3K]
Conditions: for viability, T/C: stronger effect = lower value
Source text: Combinatorial screen of targeted agents with the PI3K inhibitors inavolisib, alpelisib, duvelisib, and copanlisib in multi-cell type tumor spheroids
A high-throughput screen of multi-cell type tumor spheroids was designed to identify active combinations of targeted small molecules and PI3K pathway inhibitors. Complex spheroids include a stromal component modeled by human endothelial cells (HUVEC) and fibroblasts modeled by human mesenchymal stem cells (MSCs). The concentration ranges selected for each drug and investigational agent were based upon clinically achievable concentrations if the clinical Cmax of the agent was known.
Compounds. The drugs and investigational agents: inavolisib (NSC800729), alpelisib (NSC765974), duvelisib (NSC772469), copanlisib (NSC816437), ipatasertib (NSC767898), afuresertib (NSC778305), talazoparib (NSC767125), sapanisertib (NSC764658), selumetinib (NSC741078), tovorafenib (DAY101, NSC766906), vemurafenib (NSC761431), ravoxertinib (NSC781343), sotorasib (NSC818433), MRTX1133 (NSC 836407), abemaciclib (NSC 768073), palbociclib (NSC758247), venetoclax (NSC 766270), SY5609 (NSC837396), enzalutamide (NSC755605), and darolutamide (NSC825331), were obtained from the National Cancer Institute (NCI) Developmental Therapeutics Program Chemical Repository. The FDA-approved anticancer drug set is available from the NCI Developmental Therapeutics Program. […] The stock solutions were prepared in dimethyl sulfoxide (DMSO, Sigma-Aldrich, St. Louis, MO, cat. D2650) at 800-fold the tested concentration and stored at -70 degrees C prior to their use. All drugs and investigational agents were tested over a range starting from a high concentration at or near the clinical Cmax and decreasing in half-log increments. If the clinical Cmax for an agent had not been determined, the highest concentration tested was 10 microM.
Cell Culture. All cells were maintained in an incubator at 37 degrees C and 5% CO2 with 95% humidity. The PDC lines were cultured according to standard operating procedures established by the NCI PDMR (https://pdmr.cancer.gov/sops/default.htm). All PDCs were thawed and cultured in Matrigel-coated flasks prepared with a working solution of 1X Ham's F-12 nutrient mix, without supplementation (Invitrogen, Waltham, MA, cat. 11765054), 100 U/mL penicillin-streptomycin (Invitrogen, cat. 15140122), and 2.5% Matrigel (Corning Inc., Corning, NY, cat. 354248) for the first three passages. The 354836-022-R-J1-PDC, 475296-252-R-J1-PDC, and 997726-040-R-J2-PDC lines were cultured in 6A media, which includes advanced DMEM/F-12 (Thermo Fisher Scientific, cat. 12634028), 10 mM HEPES (Thermo Fisher Scientific, cat. 15630080), 1X GlutaMAX supplement (Thermo Fisher Scientific, cat. 35050061), 0.1 mg/mL primocin (InvivoGen, San Diego, CA, cat. ant-pm-2), 10% defined fetal bovine serum, heat inactivated (HyClone Laboratories Inc., Logan, UT, cat. SH30070.03HI), 50% L-WRN conditioned media (ATCC, cat. CRL-3276), 1.25 mM N-Acetyl-L-cysteine (Sigma-Aldrich, cat. A9165), 10 mM nicotinamide (Sigma-Aldrich, cat. N0636), 1X B-27 supplement (Thermo Fisher Scientific, cat. 17504044), 1X N-2 supplement (Thermo Fisher Scientific, cat. 17502048), and 10 microM Y-27632 dihydrochloride (Tocris Bioscience, Bristol, United Kingdom, cat. 1254). The 624824-186-R-J2-PDC line was cultured in 6C/Colon 1B media, which includes all 6A media components plus 50 ng/mL human EGF recombinant protein (Thermo Fisher Scientific, cat. PHG0311). […]
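Also: spheroids exposed to agents for seven days before readout.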
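For viability, T/C in this document: percent of vehicle DMSO control viability which is 100%.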

SMILES	viability, T/C (compound alone 0.01 µM)	viability, T/C (compound alone 0.0316 µM)	viability, T/C (compound alone 0.1 µM)	viability, T/C (compound alone 0.316 µM)	viability, T/C (compound alone 1 µM)	viability, T/C (compound alone 0.00316 µM)	viability, T/C (compound alone 3.16 µM)	viability, T/C (compound alone 10 µM)	further results
CC(Nc1ccc2c(c1)OCCn1cc(N3C(=O)OCC3C(F)F)nc1-2)C(N)=O (stereo not drawn)	54.4, 71.2, 95.4 (2×), 83, 99.5%	88.2, 74, 89, 66, 59.6, 85.4%	54.5, 60.8, 77.5, 89.7, 84, 80.3%	71.4, 39.9, 46.4, 47.6, 90.3, 67.1%	55.1, 59.8, 47.1, 55.6, 69.4, 72.5%				
COc1c(OCCCN2CCOCC2)ccc2c3n(c(=NC(=O)c4cnc(N)nc4)nc12)CCN3						119, 55.9, 81.2, 87.2, 110, 76.2%			
Cc1nc(NC(=O)N2CCCC2C(N)=O)sc1-c1ccnc(C(C)(C)C(F)(F)F)c1 (stereo not drawn)		90, 75.9, 102, 84.3, 120, 94.2%	78.2, 74.7, 96.2, 106, 120, 79.4%	86.9, 84.7, 88.2, 61.9, 62.5, 98%	94.8, 61.8, 68.7, 69.8, 69, 77.2%		67.4, 57.3, 114, 68.2, 73.7, 95%		
CC(=O)c1c(C)c2cnc(Nc3ccc(N4CCNCC4)cn3)nc2n(C2CCCC2)c1=O	69.4, 49.4, 75, 73.7%					58.4, 82.3, 90.7, 61.9%			IC50 (compound alone): 86, 9.7, 27.2, 42 nM; viability, T/C (compound alone 0.000316 µM): 66.7, 102, 71, 78.7%; viability, T/C (compound alone 0.001 µM): 49.1, 137, 84.3, 98.8%
CC(Cn1ccc(-c2ccc(C#N)c(Cl)c2)n1)NC(=O)c1cc(C(C)O)[nH]n1 (stereo not drawn)		56.1, 112, 86.7, 79.7%	75.5, 72.5, 82.2, 119%	93.4, 74.3, 66.4, 73.7%	84.1, 90.4, 82.1, 110%		79.3, 101, 77.2, 73.8%	51.4, 75.3, 64, 119%	
CC1(C)CCC(CN2CCN(c3ccc(C(=O)NS(=O)(=O)c4ccc(NCC5CCOCC5)c([N+](=O)[O-])c4)c(Oc4cnc5[nH]ccc5c4)c3)CC2)=C(c2ccc(Cl)cc2)C1								7.08%, 5.43%, 102%	
